# The full ranking holds about 33,000 sequences; the median of “E-score (-0.5 to 0.5)” is about -0.056, and the highest 2% start at about 0.38. The list shows a part of the results.
# Target: Stb4 (UniProt P50104)
# Assay: PBM E-score (8-mer binding enrichment) (E-score (-0.5 to 0.5)); higher = stronger / more preferred TF binding; most listed sequences are background and not binding sites
# Conditions: protein concentration: 200 nM; construct: GST-DNA-binding domain
# Summary of the method: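 Yeast transcription factors carrying a GST tag, as full-length proteins or DNA-binding domains, were produced by PURExpress in vitro transcription/translation. About 100-200 nM protein was applied to universal all-10-mer Agilent arrays, double-stranded by primer extension on fresh or once-stripped slides. Bound protein was detected with fluorescent anti-GST, and scans were normalised with masliner. The Universal PBM Analysis Suite gave each ungapped eight-base word, pooled with its reverse complement, an E-score, a modified Wilcoxon-Mann-Whitney statistic.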
row,Sequence,PBM E-score
1,CTGAGCCC,-0.233
2,CTCTCTAA,-0.259
3,ACTACACC,0.0591
4,CAATAGAA,-0.282
5,AGGTCTCC,-0.15
6,ACTACGGG,0.173
7,GCCTGAGC,-0.248
8,ACGTGCAC,-0.119
9,ATGGGGGG,-0.189
10,GTGGCAAA,-0.0689
11,GATCTTAC,0.133
12,GATATTAA,0.228
13,AGCGAGCG,-0.153
14,GACACGTC,0.0446
15,CTTCAAGA,-0.115
16,AACTTTAG,-0.159
17,AGGCGGAC,0.119
18,CGACATGC,0.0348
19,AGTTACGA,-0.00644
20,CGAGGCGA,-0.00218
21,AGCCCTCC,-0.0499
22,AATACACG,-0.107
23,GCTGAAGC,0.0696
24,AAGCTCAA,-0.297
25,CTCTCTTC,-0.067

row,Sequence,PBM E-score
1,AGTAATTG,-0.131
2,GTTAAGGA,0.0018
3,ACTGGGCT,-0.0497
4,AGACTGAC,-0.11
5,CTTGCCTA,-0.286
6,ATGTATAG,-0.189
7,ATTGCCTA,-0.143
8,CGCGTCCC,0.147
9,CTGCGTCA,-0.35
10,CACCGGCA,0.198
11,AGTTCGTC,-0.167
12,AGGCTTCG,0.206
13,GATCTTAA,-0.124
14,ACGCTCCG,0.204
15,ACGAGATC,-0.0355
16,GCACGCGC,-0.0844
17,CGACCGCA,0.109
18,AATGACTA,-0.259
19,AAGATGAT,-0.317
20,AGCTGTAG,-0.0425
21,ATGTGGGG,-0.227
22,GGTAGAAC,-0.125
23,GCCCCCAA,-0.429
24,ACATTGGT,-0.0611
25,GAGGTGGC,-0.137

row,Sequence,PBM E-score
1,ACTATAAG,-0.208
2,GATTCATA,-0.00878
3,CAAAGAGG,-0.158
4,CAATAGCC,-0.0503
5,CTAGGAGC,-0.0318
6,AATCGACT,-0.183
7,CCTAGCAA,-0.197
8,TGGTTCAA,-0.014
9,CCTCGCTC,0.0501
10,ACGTGACT,-0.27
11,GACACGAC,-0.247
12,CTCCTATA,-0.399
13,ATCATATA,-0.0581
14,CCACAATC,0.028
15,AGTCCGGC,0.0945
16,GAACTGAA,0.0351
17,GCACTTAC,0.0807
18,TAAGGACA,-0.159
19,CGTGCCTC,0.0554
20,CAGGAAGA,-0.132
21,ACGTCTGA,-0.124
22,ACATAGAG,-0.166
23,ACGGACCA,0.167
24,ACAATGCT,-0.251
25,CTGACACC,0.0587

row,Sequence,PBM E-score
1,TGGATTAA,-0.134
2,CGCTGACA,-0.0536
3,GGCTTGCA,-0.0343
4,AGCCGAAA,0.425
5,CTCCCGTA,0.106
6,GTGCTAAC,0.0586
7,AATTTACC,0.182
8,GAAAGAAA,0.071
9,CAGTGACC,-0.216
10,CCTGCAAA,-0.27
11,GCTACTGA,-0.0941
12,GTAGGGTA,-0.0477
13,AACGGTAA,0.104
14,ACTCCCGA,0.411
15,GTAAGCAC,-0.144
16,TACAAGAA,-0.0733
17,CCGGGCTA,0.254
18,CTAGTCAC,-0.119
19,CAGGGTAG,-0.151
20,AGTCTACG,-0.0178
21,AGCAACAC,-0.0488
22,GGTCCACC,-0.0103
23,GTCCAGAC,-0.365
24,AGCTATCA,-0.17
25,AATCGTAG,-0.298

row,Sequence,PBM E-score
1,CGTCCCAC,-0.0761
2,CTAAGGCA,-0.154
3,ACACGCGC,0.00442
4,CTCGAATA,0.0163
5,GAGTTGCA,-0.0614
6,CCGCACAA,0.136
7,ATGCACCG,0.133
8,AAAGAATT,-0.0563
9,CTGCCCAA,-0.0865
10,CACAGGTG,-0.266
11,GTTGACAA,-0.00399
12,AACTACCC,0.116
13,ATACGTGC,-0.02
14,AAGGTAGA,-0.113
15,AGATTTAA,-0.0119
16,ACCCGCTA,0.151
17,CGACACCC,0.107
18,AGAAGTAA,-0.226
19,ATTCTGTA,0.0857
20,AAATTATG,-0.0977
21,CATGTCCC,0.0202
22,CGCATCTA,0.0075
23,AAGTGGTC,-0.00068
24,CTGCCATC,-0.0272
25,GAGGTACC,0.0627

row,Sequence,PBM E-score
1,AGTTTGGG,-0.172
2,AGCGGATC,0.255
3,AATCAGTG,-0.0707
4,AGCAAAAC,-0.119
5,AATGATGC,0.0244
6,CCGTTAAG,0.0109
7,GATCAGCC,-0.0153
8,TGCAATAA,-0.179
9,ATTGACGG,0.0795
10,CGGTAGAA,0.19
11,CGGATTGA,0.281
12,AACGTGAC,-0.104
13,ATGCTTTA,-0.0981
14,TCCTGCGA,0.0562
15,GGCGCGCA,0.0402
16,CGGAGGTA,0.237
17,AGCTTTTC,0.0828
18,AGAGGTCG,-0.0167
19,AGGTTACG,-0.164
20,CTTGTAAC,-0.0834
21,CTCGAGTA,-0.233
22,GCCCTTAC,-0.0314
23,ACCACCAG,-0.0538
24,CTATAAGA,-0.272
25,GCGGGCAC,0.0927

row,Sequence,PBM E-score
1,CAGGGGCC,-0.188
2,ACTCGAGA,-0.0526
3,TCCGTCGA,0.244
4,GTCATCGA,-0.305
5,CTCCTCAG,-0.0599
6,TCGAAACA,0.0385
7,CTTCCAGC,-0.0821
8,CAGTTTAA,-0.174
9,ACCTGGGA,-0.178
10,ACATTAGT,-0.122
11,GTAAGCAA,-0.0645
12,CCGCAGTA,0.0209
13,TACGAGGA,-0.193
14,AATACTTA,0.0173
15,TAATTCGA,-0.317
16,ATACTTAA,-0.00531
17,AATGCAAC,-0.147
18,CTTTTGGC,-0.233
19,CTGACATC,-0.0449
20,ATTTCAGC,-0.188
21,ACAGGCAA,-0.163
22,CATAGGGC,-0.0367
23,GACGGGTA,0.267
24,ATTGCCAA,-0.00793
25,AGAGCGGC,0.101

row,Sequence,PBM E-score
1,ATATGATC,-0.0133
2,GCCAAAGA,-0.174
3,GTGAAGCA,-0.201
4,AATGTGGA,-0.0863
5,CATTCAGG,-0.0881
6,ACCGATGC,0.228
7,CAAGAGCG,-0.136
8,GTAGACAC,0.0353
9,GAATGCGC,0.193
10,CGGTGTGA,0.105
11,CCTGGGGA,-0.351
12,ATGACTAA,-0.225
13,GCTGAGCC,-0.0483
14,AGCTTCAG,-0.13
15,AAGAAAGG,-0.218
16,AGAAAATG,0.0192
17,CATGCGAG,-0.118
18,ATCGAAGC,0.00427
19,ACAGGGAT,-0.125
20,ACCAACCA,-0.071
21,CAGGGACC,-0.176
22,CGTCGTTC,0.184
23,CAGGTAAA,0.0185
24,CACACCGA,0.202
25,ACATAACT,-0.108

row,Sequence,PBM E-score
1,GGTTGACA,-0.0583
2,CCCATTAC,-0.104
3,GGGCCGAC,0.311
4,GATACTGA,-0.00363
5,GCTGCTAC,-0.207
6,CCATCTAG,-0.18
7,CGTTTACA,-0.078
8,CTTGCTAA,-0.276
9,ACTCGGCG,0.326
10,ACCAAGAT,-0.0531
11,AGTGAAGG,-0.224
12,ACCGTATG,-0.168
13,CCACCAAA,-0.138
14,CCATGGGA,-0.117
15,AGCCCCAT,-0.213
16,CTTCCGTC,0.341
17,CATGAGAA,-0.0981
18,CCTGGGTA,-0.161
19,CCATTCAC,0.0131

# From the supplement of paper PMC3334620
